Data published in the supplement of paper PMC6089552.
Hit rate of the full screen: of about 3,200 compounds, about 300 (9.4%) showed activity. Only a part is listed here, and it is no random draw.

Tested on: A673/TR/shEF
Test: cell viability (LOESS-normalised, relative to median of negative controls) (log2 ratio); higher = more viable cells (less compound effect), active = hit call of the paper (over 3 MAD below the median)
Conditions: treatment time: 72 h
Summary of the method: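 A673/TR/shEF Ewing sarcoma cells (1,500 per well, 384-well plates) were grown with or without doxycycline to induce EWS-FLI1 shRNA knockdown, starting 24 h before compounds. Library compounds at two or more concentrations, with DMSO controls, were added for three days. Cell viability was read by CellTiter-Glo luminescence on an Envision reader, then LOESS-corrected per plate, divided by the median of negative controls and log2-transformed. Hits were wells at least three median absolute deviations from the median of all screened wells.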

[1] = 0.25 µM, library screen: screen1, EWS-FLI1 expression: high (no doxycycline)
[2] = 0.25 µM, library screen: screen1, EWS-FLI1 expression: low (doxycycline-induced shRNA knockdown)
[3] = 2.5 µM, library screen: screen1, EWS-FLI1 expression: high (no doxycycline)
[4] = 2.5 µM, library screen: screen1, EWS-FLI1 expression: low (doxycycline-induced shRNA knockdown)
[5] = 0.103 µM, library screen: screen3, EWS-FLI1 expression: high (no doxycycline)
[6] = 0.103 µM, library screen: screen3, EWS-FLI1 expression: low (doxycycline-induced shRNA knockdown)
[7] = 0.308 µM, library screen: screen3, EWS-FLI1 expression: high (no doxycycline)
[8] = 0.308 µM, library screen: screen3, EWS-FLI1 expression: low (doxycycline-induced shRNA knockdown)
[9] = 0.926 µM, library screen: screen3, EWS-FLI1 expression: high (no doxycycline)
[10] = 0.926 µM, library screen: screen3, EWS-FLI1 expression: low (doxycycline-induced shRNA knockdown)
[11] = 2.8 µM, library screen: screen3, EWS-FLI1 expression: high (no doxycycline)
[12] = 2.8 µM, library screen: screen3, EWS-FLI1 expression: low (doxycycline-induced shRNA knockdown)
[13] = 8.3 µM, library screen: screen3, EWS-FLI1 expression: high (no doxycycline)
[14] = 8.3 µM, library screen: screen3, EWS-FLI1 expression: low (doxycycline-induced shRNA knockdown)
[15] = 25 µM, library screen: screen3, EWS-FLI1 expression: high (no doxycycline)
[16] = 25 µM, library screen: screen3, EWS-FLI1 expression: low (doxycycline-induced shRNA knockdown)
[17] = 0.25 µM, library screen: screen2, EWS-FLI1 expression: high (no doxycycline)
[18] = 0.25 µM, library screen: screen2, EWS-FLI1 expression: low (doxycycline-induced shRNA knockdown)
[19] = 2.5 µM, library screen: screen2, EWS-FLI1 expression: high (no doxycycline)
[20] = 2.5 µM, library screen: screen2, EWS-FLI1 expression: low (doxycycline-induced shRNA knockdown)

Measured: cell viability (log2)

Nc1nccs1
inactive: [1] 0.00973 | [2] 0.0738 | [3] 0.0951 | [4] 0.156

CC(C)CCCC(C)C1CCC2C3CC=C4CC(=O)CCC4(C)C3CCC12C (configuration not stated)
inactive: [1] 0.0196 | [2] 0.0967 | [3] 0.0967 | [4] 0.133

NC(=O)c1cccnc1
inactive: [5] 0.137 | [6] -0.0312 | [7] 0.105 | [8] 0.0868 | [9] 0.118 | [10] 0.0325 | [11] 0.0811 | [12] 0.0605 | [13] 0.102 | [14] 0.0902 | [15] 0.0651 | [16] 0.111

NCCC(=O)N[C@@H](Cc1cnc[nH]1)C(=O)O
inactive: [1] 0.026 | [2] 0.0201 | [3] 0.0679 | [4] 0.084

OCc1ccc(-c2nn(Cc3ccccc3)c3ccccc23)o1
inactive: [17] 0.207 | [18] 0.0743 | [19] 0.176 | [20] 0.0539

S=c1nc[nH]c2nc[nH]c12
inactive: 0.025 µM, library screen: screen2, EWS-FLI1 expression: high (no doxycycline) 0.182 | 0.025 µM, library screen: screen2, EWS-FLI1 expression: low (doxycycline-induced shRNA knockdown) 0.0993 | [5] 0.0192 | [6] 0.0459 | [1] -0.0045 | [2] -0.00406 | [17] 0.161 | [18] 0.00291 | [7] 0.144 | [8] 0.158 | [9] 0.0964 | [10] 0.0595 | [4] 0.0219 | [19] -0.00564 | [20] 0.0787 | [11] 0.036 | [12] 0.0694 | [13] -0.147 | [14] 0.036 | 25 µM, library screen: screen2, EWS-FLI1 expression: low (doxycycline-induced shRNA knockdown) 0.0432 | [16] 0.056
active: [3] -0.186 | 25 µM, library screen: screen2, EWS-FLI1 expression: high (no doxycycline) -0.312 | [15] -0.314

CNC1(C)C2CCC(C2)C1(C)C (configuration not stated)
inactive: [1] 0.132 | [2] -0.0497 | [17] 0.155 | [18] 0.0768 | [3] 0.209 | [4] 0.0714 | [19] 0.169 | [20] 0.0595

CCCCCCCCCCCCCCCC[N+](C)(C)C
inactive: [1] 0.115 | [2] 0.0557 | [3] 0.0896 | [4] -0.153

N#CC(=C(/N)Sc1ccccc1N)/C(C#N)=C(\N)Sc1ccccc1N
inactive: [17] 0.102 | [18] 0.0572 | [19] -0.0299 | [20] -0.0332

CC1=C(C(=O)O)N2C(=O)[C@@H](NC(=O)[C@H](N)c3ccc(O)cc3)[C@H]2SC1
inactive: [1] 0.162 | [2] 0.185 | [3] 0.197 | [4] 0.208
